# The full ranking holds about 33,000 sequences; the median of “E-score (-0.5 to 0.5)” is about -0.056, and the highest 2% start at about 0.38. Some of the results follow.
# Molecular target: Stb4 (UniProt P50104)
# Assay: PBM E-score (8-mer binding enrichment) (E-score (-0.5 to 0.5)); higher = stronger / more preferred TF binding; most listed sequences are background and not binding sites
# Conditions: protein concentration: 200 nM; construct: GST-DNA-binding domain
# Protocol: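 Universal 'all 10-mer' protein binding microarrays (Agilent AMADID 015681) probed with GST-tagged S. cerevisiae TFs (full-length or DBD) made by in vitro transcription/translation (PURExpress), about 100-200 nM. Bound TF was detected with fluorescent anti-GST. Each ungapped 8-mer (which stands for itself and its reverse complement) is scored by the PBM enrichment score (E-score), a modified Wilcoxon-Mann-Whitney statistic from -0.5 to +0.5, computed with the Universal PBM Analysis Suite. Scale: above 0.35 generally sequence-specific binding.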
row,Sequence,PBM E-score
1,CCAATCCG,0.278
2,ATCTAGAC,-0.105
3,CTCGAAGA,-0.135
4,GACTTCCA,-0.163
5,CATCTCAA,-0.221
6,GTCTGAGA,-0.265
7,AAATCTCA,-0.0445
8,CAGAATAC,0.0367
9,TGACCGCA,0.0488
10,ACGTCACT,-0.0341
11,GATTTGGC,-0.164
12,CTCACTTC,-0.141
13,ATGCCCGA,0.112
14,AGCATAGA,-0.021
15,TAATATTA,0.142
16,ATCGCAAT,0.0414
17,CCTCTCGC,-0.129
18,CGGCGCAA,0.197
19,CCACATAA,-0.147
20,AACAGTGT,-0.206
21,AGCCACAT,-0.215
22,CGCGACAA,0.00998

row,Sequence,PBM E-score
1,CCCATTTA,-0.188
2,CACAAGCC,-0.00051
3,CGACGATC,0.168
4,CAATAATC,0.0381
5,AAAGGAGG,-0.0365
6,CGAGGGCC,0.164
7,ATGATCAT,-0.0384
8,AGGCCGGA,0.272
9,GATACACC,0.144
10,ACGAACGT,-0.112
11,CATAGACG,-0.124
12,CGGAAACA,0.427
13,GAAGTCTC,-0.00254
14,CTTCTTTC,-0.0217
15,GCGCGAGA,0.0692
16,CGTCAAGA,-0.109
17,TAGACCTA,-0.264
18,GCTTAAGC,-0.253
19,CTCGGATA,0.49
20,CGTAAACC,0.0518
21,TGAGGTAA,-0.095
22,ATGGGGTC,0.00568

row,Sequence,PBM E-score
1,AGCTACTA,0.0565
2,CACTTGAC,-0.179
3,GACTTATC,-0.0737
4,CGGTCCAC,0.00164
5,AAGAGCCG,0.334
6,GGGCACGA,-0.0287
7,GCCCCGGC,0.105
8,CATGTTAA,-0.0413
9,ATTAGGCC,-0.201
10,ATCCCGAG,0.439
11,GAGGAATA,0.11
12,GGGCGACA,0.0337
13,AATCATCG,0.0618
14,GCCGCGAC,0.0123
15,TAGAATGA,-0.266
16,GTACTACA,-0.211
17,ACTTTTTG,0.0106
18,ACCAGTCC,-0.135
19,GCTATGCA,-0.15
20,AGTGGAGG,-0.134
21,ACATGCGG,0.107
22,ATCGGAGG,0.199

row,Sequence,PBM E-score
1,ATTCTCAC,0.0398
2,GTACAGGA,0.0398
3,ACTGTAAT,-0.145
4,ACGCCGTG,-0.0449
5,ATCTACTC,-0.0131
6,CTAGAGCA,-0.24
7,AGAGACGC,0.0863
8,CGGTTGAA,0.124
9,ACCGCGCT,-0.0811
10,ACTGCGGA,0.175
11,CCGACTGC,0.263
12,ATCTGCAA,-0.214
13,ACTCAGCT,-0.129
14,AGGAACGA,0.0238
15,ACTCTCGC,-0.0541
16,AGATATGG,-0.149
17,CCTGTAAA,-0.219
18,CCCTGAAA,-0.237
19,AAAGCCAA,-0.118
20,CGCGAAGA,0.112

# Source: the supplement of paper PMC3334620
